# Data taken from the supplement of paper PMC8728848.
# Some of the results follow.
# B1: PkBDPgamma (Plasmodium knowlesi) (protein)
# chain: SAINQIFLQNNVMDKCNDKRKRGERDWDCPTEKDVCIPDRRYQLCMMEITNLVDTDTHFHSDIIFRKSYSRRRLIYDVGGRGDLLLKKYNNVYSEDLCKDIKWSLQDFGDIIMGTDMEGIGYSLVVQNNLRSIFGTGTSAELDRKKWWNDHKKDIWKAMILSVKEKNRYSAWNCKEDVQIKVEPQIYRWIREWGRDYMSEFREQRRKLNEKCEDKLYYSTMLICTLPPCNNACKSYDEWITGKKKQWDVLSTKFSSVKKAQKIETENIARAYDILKQELNGFNEVTFENEINKRDKLYNYFCVCIVQEARKNTQENVKNVGSGVESKAPSSNPINEAVKSSSGEGKVQEDSAHRSVNEGEGKSSTNEADPGSQPGAAASGGGSGGGTGGGVDLAPQMLRELQETNAALQDVRELLRQQVKEITFLKNTVMECDACGGPLDRNLPPLAPLGPTGGWSHPQFEK
# Columns and labels:
# Assay in all cases: glycan array binding signal (z-score within array); higher = stronger binding
# Settings in all cases: glycan notation: IUPAC condensed, linker removed
# [1] = target: Neu5Ac(a2-3)Gal(b1-3)GlcNAc(b1-6)GalNAc
# Outline: (§1)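 Columns mapping to the same glycan were averaged after glycan names were converted to IUPAC-condensed notation. The data come from 3228 arrays in the Consortium for Functional Glycomics database, limited to those with an available protein sequence. Binding is reported as a within-array Z-score averaged across arrays of one protein sequence and across linkers.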
# [2] = target: Neu5Ac(a2-3)Gal(b1-3)GlcNAc6S
# Outline: as §1
# [3] = target: Neu5Ac(a2-3)Gal(b1-3)[Fuc(a1-4)]GlcNAc
# Outline: as §1
# [4] = target: Neu5Ac(a2-3)Gal(b1-3)[Fuc(a1-4)]GlcNAc(b1-3)Gal(b1-3)[Fuc(a1-4)]GlcNAc
# Outline: as §1
# [5] = target: Neu5Ac(a2-3)Gal(b1-3)[Fuc(a1-4)]GlcNAc(b1-3)Gal(b1-4)[Fuc(a1-3)]GlcNAc
# Outline: as §1
# [6] = target: Neu5Ac(a2-3)Gal(b1-3)[GlcNAc(b1-6)]GalNAc
# Outline: as §1
# [7] = target: Neu5Ac(a2-3)Gal(b1-3)[Neu5Ac(a2-6)]GalNAc
# Outline: as §1
# [8] = target: Neu5Ac(a2-3)Gal(b1-3)[Neu5Ac(a2-6)]GlcNAc(b1-3)[Fuc(a1-3)[Gal(b1-4)]GlcNAc(b1-6)]Gal(b1-4)Glc
# Outline: as §1
# [9] = target: Neu5Ac(a2-3)Gal(b1-3)]Neu5Ac(a2-3)Gal(b1-4)]GlcNAc
# Outline: as §1
# Neu5Ac(a2-3)Gal(b1-4)Glc = target: Neu5Ac(a2-3)Gal(b1-4)Glc
# Outline: as §1
# [10] = target: Neu5Ac(a2-3)Gal(b1-4)GlcNAc
# Outline: as §1
# [11] = target: Neu5Ac(a2-3)Gal(b1-4)GlcNAc(b1-2)Man
# Outline: as §1
# [12] = target: Neu5Ac(a2-3)Gal(b1-4)GlcNAc(b1-2)Man(a1-3)[GlcNAc(b1-4)][Neu5Ac(a2-3)Gal(b1-4)GlcNAc(b1-2)Man(a1-6)]Man(b1-4)GlcNAc(b1-4)GlcNAc
# Outline: as §1
# [13] = target: Neu5Ac(a2-3)Gal(b1-4)GlcNAc(b1-2)Man(a1-3)[Neu5Ac(a2-3)Gal(b1-4)GlcNAc(b1-2)Man(a1-6)]Man(b1-4)GlcNAc(b1-4)GlcNAc
# Outline: as §1
# [14] = target: Neu5Ac(a2-3)Gal(b1-4)GlcNAc(b1-2)Man(a1-3)[Neu5Ac(a2-3)Gal(b1-4)GlcNAc(b1-2)Man(a1-6)]Man(b1-4)GlcNAc(b1-4)[Fuc(a1-6)]GlcNAc
# Outline: as §1
# [15] = target: Neu5Ac(a2-3)Gal(b1-4)GlcNAc(b1-2)Man(a1-3)[Neu5Ac(a2-6)Gal(b1-4)GlcNAc(b1-2)Man(a1-6)]Man(b1-4)GlcNAc(b1-4)GlcNAc
# Outline: as §1
# [16] = target: Neu5Ac(a2-3)Gal(b1-4)GlcNAc(b1-2)[Neu5Ac(a2-3)Gal(b1-4)GlcNAc(b1-4)]Man(a1-3)[GlcNAc(b1-4)][Neu5Ac(a2-3)Gal(b1-4)GlcNAc(b1-2)[Neu5Ac(a2-3)Gal(b1-4)GlcNAc(b1-6)]Man(a1-6)]Man(b1-4)GlcNAc(b1-4)GlcNAc
# Outline: as §1
# [17] = target: Neu5Ac(a2-3)Gal(b1-4)GlcNAc(b1-2)[Neu5Ac(a2-3)Gal(b1-4)GlcNAc(b1-4)]Man(a1-3)[GlcNAc(b1-4)][Neu5Ac(a2-3)Gal(b1-4)GlcNAc(b1-4)Man(a1-6)]Man(b1-4)GlcNAc(b1-4)GlcNAc
# Outline: as §1
# [18] = target: Neu5Ac(a2-3)Gal(b1-4)GlcNAc(b1-2)[Neu5Ac(a2-3)Gal(b1-4)GlcNAc(b1-6)]Man(a1-6)[Neu5Ac(a2-3)Gal(b1-4)GlcNAc(b1-2)Man(a1-3)][GlcNAc(b1-4)]Man(b1-4)GlcNAc(b1-4)GlcNAc
# Outline: as §1
# [19] = target: Neu5Ac(a2-3)Gal(b1-4)GlcNAc(b1-3)Gal
# Outline: as §1
# [20] = target: Neu5Ac(a2-3)Gal(b1-4)GlcNAc(b1-3)Gal(b1-3)GlcNAc
# Outline: as §1
# [21] = target: Neu5Ac(a2-3)Gal(b1-4)GlcNAc(b1-3)Gal(b1-4)GlcNAc
# Outline: as §1
# [22] = target: Neu5Ac(a2-3)Gal(b1-4)GlcNAc(b1-3)Gal(b1-4)GlcNAc(b1-2)Man(a1-3)[Neu5Ac(a2-3)Gal(b1-4)GlcNAc(b1-3)Gal(b1-4)GlcNAc(b1-2)Man(a1-6)]Man(b1-4)GlcNAc(b1-4)GlcNAc
# Outline: as §1
# [23] = target: Neu5Ac(a2-3)Gal(b1-4)GlcNAc(b1-3)Gal(b1-4)GlcNAc(b1-3)Gal(b1-4)GlcNAc
# Outline: as §1
# [24] = target: Neu5Ac(a2-3)Gal(b1-4)GlcNAc(b1-3)Gal(b1-4)GlcNAc(b1-3)Gal(b1-4)GlcNAc(b1-2)Man(a1-3)[Neu5Ac(a2-3)Gal(b1-4)GlcNAc(b1-3)Gal(b1-4)GlcNAc(b1-3)Gal(b1-4)GlcNAc(b1-2)Man(a1-6)]GalNAc
# Outline: as §1
# [25] = target: Neu5Ac(a2-3)Gal(b1-4)GlcNAc(b1-3)Gal(b1-4)GlcNAc(b1-3)GalNAc
# Outline: as §1
# [26] = target: Neu5Ac(a2-3)Gal(b1-4)GlcNAc(b1-3)Gal(b1-4)GlcNAc(b1-3)[Neu5Ac(a2-3)Gal(b1-4)GlcNAc(b1-3)Gal(b1-4)GlcNAc(b1-6)]GalNAc
# Outline: as §1
# [27] = target: Neu5Ac(a2-3)Gal(b1-4)GlcNAc(b1-3)Gal(b1-4)GlcNAc(b1-6)[Gal(b1-3)]GalNAc
# Outline: as §1
# [28] = target: Neu5Ac(a2-3)Gal(b1-4)GlcNAc(b1-3)Gal(b1-4)[Fuc(a1-3)]GlcNAc
# Outline: as §1
# [29] = target: Neu5Ac(a2-3)Gal(b1-4)GlcNAc(b1-3)GalNAc
# Outline: as §1
binder,measurement,setting,value
B1,glycan array binding signal (z-score),[1],0.469
same,glycan array binding signal (z-score),[2],-0.075
same,glycan array binding signal (z-score),[3],-0.337
same,glycan array binding signal (z-score),[4],-0.069
same,glycan array binding signal (z-score),[5],-0.366
same,glycan array binding signal (z-score),[6],-0.266
same,glycan array binding signal (z-score),[7],0.139
same,glycan array binding signal (z-score),[8],-0.141
same,glycan array binding signal (z-score),[9],-0.183
same,glycan array binding signal (z-score),Neu5Ac(a2-3)Gal(b1-4)Glc,0.115
same,glycan array binding signal (z-score),[10],-0.262
same,glycan array binding signal (z-score),[11],0.266
same,glycan array binding signal (z-score),[12],-0.62
same,glycan array binding signal (z-score),[13],0.46
same,glycan array binding signal (z-score),[14],-0.023
same,glycan array binding signal (z-score),[15],0.268
same,glycan array binding signal (z-score),[16],0.262
same,glycan array binding signal (z-score),[17],-0.279
same,glycan array binding signal (z-score),[18],-0.229
same,glycan array binding signal (z-score),[19],-0.365
same,glycan array binding signal (z-score),[20],-0.241
same,glycan array binding signal (z-score),[21],0.522
same,glycan array binding signal (z-score),[22],-0.252
same,glycan array binding signal (z-score),[23],-0.185
same,glycan array binding signal (z-score),[24],0.477
same,glycan array binding signal (z-score),[25],-0.214
same,glycan array binding signal (z-score),[26],-0.058
same,glycan array binding signal (z-score),[27],-0.613
same,glycan array binding signal (z-score),[28],0.258
same,glycan array binding signal (z-score),[29],-0.073
